According to the supplement of paper PMC3334620:
The full ranking holds about 33,000 sequences; the median of “E-score (-0.5 to 0.5)” is about -0.04, and the highest 2% start at about 0.36. The list shows a part of the results.

Each sequence was assayed against T1, Hmlalpha2 (UniProt P0CY09) (assay: PBM E-score (8-mer binding enrichment) (E-score (-0.5 to 0.5)); higher = stronger / more preferred TF binding; most listed sequences are background and not binding sites). Settings: protein concentration: 200 nM; construct: GST-full length.
T1 sequence: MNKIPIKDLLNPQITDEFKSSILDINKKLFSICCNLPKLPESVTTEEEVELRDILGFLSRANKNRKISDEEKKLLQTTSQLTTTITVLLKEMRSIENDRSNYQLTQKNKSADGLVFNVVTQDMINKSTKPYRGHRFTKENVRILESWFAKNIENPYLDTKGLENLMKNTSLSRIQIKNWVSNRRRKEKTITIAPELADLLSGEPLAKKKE
Outline: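 Full-length yeast transcription factors or their DNA-binding domains, GST-tagged and expressed with PURExpress, were applied at about 100-200 nM to universal all-10-mer Agilent arrays. These arrays had been made double-stranded by primer extension on fresh or once-stripped slides. Detection used fluorescent anti-GST, normalisation used masliner, and E-scores for ungapped eight-base words pooled with reverse complements came from the Universal PBM Analysis Suite.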
AAGGTACA was tested, and the “PBM E-score” value was 0.0862.
For CGCTAAAG, the “PBM E-score” value was -0.129.
In the case of AAAAGTCA, the “PBM E-score” value is reported as -0.0146.
For CAAAGAGA, the “PBM E-score” value was -0.11.
In the case of ACTTGTGC, the “PBM E-score” value is reported as -0.205.
AGATATGC was tested, and the “PBM E-score” value was 0.0358.
With CAGCAGAG the “PBM E-score” value was -0.278.
With AAGCGTCC the “PBM E-score” value was -0.0595.
With GCTGGCCC the “PBM E-score” value was -0.258.
For GATTCGCA, the “PBM E-score” value was -0.136.
For CAATCATG, the “PBM E-score” value was 0.173.
With ACCATGCA the “PBM E-score” value was 0.106.
With AGTTCTGG the “PBM E-score” value was -0.135.
With CAATCATC the “PBM E-score” value was -0.111.
For GCGAGACA, the “PBM E-score” value was -0.00716.
With CTTCGCCA the “PBM E-score” value was 0.00811.
With AAGCCCAC the “PBM E-score” value was -0.156.
In the case of ACCGCCAT, the “PBM E-score” value is reported as -0.0716.
ACGTCCCG was tested, and the “PBM E-score” value was -0.187.
In the case of CAAAATCG, the “PBM E-score” value is reported as -0.0871.
For GATAGGCC, the “PBM E-score” value was -0.0107.
GATTACCC was tested, and the “PBM E-score” value was 0.109.
With CCTAAGGC the “PBM E-score” value was -0.272.
In the case of GACCCGAA, the “PBM E-score” value is reported as -0.325.
AGCATTTA was tested, and the “PBM E-score” value was 0.0513.
With ACGCGTCC the “PBM E-score” value was 0.105.
For CTGGCAGC, the “PBM E-score” value was -0.236.
With AGACTTGC the “PBM E-score” value was -0.0754.
In the case of CGGATCCC, the “PBM E-score” value is reported as -0.347.
For GTACTGAA, the “PBM E-score” value was 0.0605.
ACAATGGC was tested, and the “PBM E-score” value was 0.0406.
In the case of CTGGCCGA, the “PBM E-score” value is reported as -0.378.
With AGGAGGTG the “PBM E-score” value was -0.24.
With CGAGATCC the “PBM E-score” value was -0.173.
For ACAAGCTG, the “PBM E-score” value was 0.226.
GCGTAGCC was tested, and the “PBM E-score” value was 0.00466.
For CATGGTCA, the “PBM E-score” value was 0.19.
In the case of AAGCAGTA, the “PBM E-score” value is reported as -0.0861.
For CACCTAAA, the “PBM E-score” value was -0.0345.
For ATCGAGAA, the “PBM E-score” value was 0.0444.
GGCTAATA was tested, and the “PBM E-score” value was -0.115.
For AGAAAGGG, the “PBM E-score” value was 0.0162.
With CAAGCGCG the “PBM E-score” value was -0.0446.
GTCTTCTA was tested, and the “PBM E-score” value was -0.0647.
With CGCTTTGC the “PBM E-score” value was 0.0434.
AGTCACGG was tested, and the “PBM E-score” value was -0.171.
With AGGCGCAT the “PBM E-score” value was -0.0396.
CTAATTCC was tested, and the “PBM E-score” value was -0.0483.
CACACGCC was tested, and the “PBM E-score” value was 0.154.
ATTTAAAA was tested, and the “PBM E-score” value was 0.0606.
ATTGTGAC was tested, and the “PBM E-score” value was 0.0491.
GTCAAGAA was tested, and the “PBM E-score” value was 0.149.
GGGACCTA was tested, and the “PBM E-score” value was -0.236.
In the case of CGCACACG, the “PBM E-score” value is reported as -0.0448.
For AGAGTCTA, the “PBM E-score” value was -0.0235.
For CCCGGCAC, the “PBM E-score” value was -0.324.
CCCAAGTA was tested, and the “PBM E-score” value was -0.0965.
For CTAGCAGA, the “PBM E-score” value was -0.179.
For AATCAAGG, the “PBM E-score” value was -0.191.
GCAGTTTA was tested, and the “PBM E-score” value was 0.00455.
For CTGAGGGA, the “PBM E-score” value was -0.299.
With GTACGCAA the “PBM E-score” value was 0.155.
In the case of GTGTCGGA, the “PBM E-score” value is reported as 0.00114.
For GGAGTGAA, the “PBM E-score” value was -0.0748.
In the case of TCATTCAA, the “PBM E-score” value is reported as 0.0446.
For AGGTGTTG, the “PBM E-score” value was -0.053.
With TAGAAGCA the “PBM E-score” value was 0.161.
In the case of ACCGCACC, the “PBM E-score” value is reported as -0.137.
In the case of AACCATAA, the “PBM E-score” value is reported as 0.22.
In the case of AGCACCGC, the “PBM E-score” value is reported as -0.218.
In the case of AGCTGAAG, the “PBM E-score” value is reported as -0.154.
In the case of CGAACCTC, the “PBM E-score” value is reported as -0.111.
With AACGGTGC the “PBM E-score” value was 0.127.
In the case of ACTGGGCC, the “PBM E-score” value is reported as -0.107.
With CCCAAACC the “PBM E-score” value was -0.233.
CAATAATA was tested, and the “PBM E-score” value was 0.198.
With AAGTGGAA the “PBM E-score” value was 0.0467.
With CAGCCTTA the “PBM E-score” value was -0.131.
CATATGAC was tested, and the “PBM E-score” value was 0.137.
In the case of ATATTCTC, the “PBM E-score” value is reported as 0.00428.
With GAGTTACA the “PBM E-score” value was 0.233.
AGTGAAAC was tested, and the “PBM E-score” value was -0.0209.
GGGACACA was tested, and the “PBM E-score” value was -0.179.
In the case of CCCATATA, the “PBM E-score” value is reported as -0.213.
CATTATGC was tested, and the “PBM E-score” value was 0.0946.
With CCCATCCG the “PBM E-score” value was -0.185.
